Assay results: the supplement of paper PMC9446081
Screen size: about 39,000 compounds; about 220 (0.56%) showed activity. The list shows a part of the results.

What follows are compounds tested on Escherichia coli K-12 BW25113 (assay: relative growth (OD600 normalised to plate interquartile mean) (fraction); higher = less growth inhibition, active = 0.2 or less). Conditions: 50 µM; LB; incubation time: overnight (16-24 h).
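Also: static incubation at 37 °C against the wild-type strain, values averaged over two biological replicates.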

| Compound | relative growth |
| --- | --- |
| CCC[C@@H]1C[C@@H](C(=O)N[C@H]([C@H]2O[C@H](SC)[C@H](O)[C@@H](O)[C@H]2O)[C@@H](C)Cl)N(C)C1 | inactive: 0.843 |
| C[C@@H]1CN([C@H](C)CO)C(=O)Cc2cc(NC(=O)Cn3cnnn3)ccc2O[C@@H]1CN(C)Cc1ccc(Oc2ccccc2)cc1 | inactive: 1.03 |
| COc1ccc(S(=O)(=O)Nc2ccc3c(c2)CC(=O)N([C@H](C)CO)C[C@H](C)[C@@H](CN(C)C(=O)NC(C)C)O3)cc1 | inactive: 1.01 |
| NC(=O)CSc1ccccn1 | inactive: 1.02 |
| CO[C@@]1(C(=O)NN)COc2ccccc2O1 | inactive: 1.03 |
| Cc1nc(N2CCC3(CC2)CO[C@@H](C)[C@H]3N)c(CO)nc1-c1cccc(Cl)c1Cl | inactive: 0.968 |
| Cc1ccc(S(=O)(=O)N(C)C[C@H]2OCCCC[C@@H](C)Oc3ccc(NC(=O)CCC(F)(F)F)cc3C(=O)N([C@H](C)CO)C[C@@H]2C)cc1 | inactive: 1.02 |
| COc1ccc(NC(=O)Nc2ccc3c(c2)C(=O)N([C@H](C)CO)C[C@H](C)[C@@H](CN(C)S(=O)(=O)c2cccs2)OCCCC[C@H](C)O3)cc1 | inactive: 1.04 |
| Cc1ccc(S(=O)(=O)Nc2ccc3c(c2)CC(=O)N([C@@H](C)CO)C[C@@H](C)[C@H](CN(C)S(=O)(=O)c2cccs2)O3)cc1 | inactive: 0.985 |
| C[C@@H]1CCCCO[C@H](CN(C)CC2CC2)[C@H](C)CN([C@@H](C)CO)C(=O)c2cc(NC(=O)C3CCCCC3)ccc2O1 | inactive: 0.871 |
| COC(=O)c1ccccc1S(=O)(=O)NC(=O)Nc1nc(C)c2c(n1)CCS(=O)(=O)C2 | inactive: 1.01 |
| C[C@@H]1CN([C@H](C)CO)C(=O)c2cccc(NC(=O)Nc3cccc4ccccc34)c2O[C@@H]1CN(C)CC1CCCCC1 | inactive: 0.999 |
| CCS(=O)(=O)Nc1ccc2c(c1)C(=O)N(C)[C@@H]1CC[C@H](CC(=O)NCCOC)O[C@H]1CO2 | inactive: 0.986 |
| COc1ccc(NC(=O)Nc2ccc3c(c2)C(=O)N([C@H](C)CO)C[C@@H](C)[C@H](CN(C)C(=O)Nc2ccc4c(c2)OCO4)OCCCC[C@@H](C)O3)cc1 | inactive: 1.03 |
| C[C@@H]1CN([C@@H](C)CO)C(=O)c2cc(NS(=O)(=O)c3cccs3)ccc2O[C@@H]1CN(C)Cc1ccc(-c2ccccc2)cc1 | inactive: 0.975 |
| C[C@@H]1CN([C@@H](C)CO)C(=O)c2cc(NS(=O)(=O)c3ccc(Cl)cc3)ccc2O[C@@H](C)CCCCO[C@H]1CN(C)CC1CCCCC1 | inactive: 0.979 |
| CC(C)NC(=O)N(C)C[C@@H]1Oc2ccc(NC(=O)Nc3ccc4c(c3)OCO4)cc2CC(=O)N([C@@H](C)CO)C[C@@H]1C | inactive: 0.979 |

| Compound | relative growth |
| --- | --- |
| O=C(C[C@@H]1C[C@@H]2c3cc(NC(=O)NC4CCCC4)ccc3O[C@@H]2[C@@H](CO)O1)NCc1ccc2c(c1)OCO2 | inactive: 1.02 |
| C[C@@H]1CCCCO[C@@H](CN(C)C(=O)Nc2ccc3c(c2)OCO3)[C@H](C)CN([C@@H](C)CO)C(=O)c2cc(NC(=O)Nc3cccc4ccccc34)ccc2O1 | inactive: 1.06 |
| NCC[C@H](O)C(=O)N[C@@H]1C[C@H](N)[C@@H](O[C@H]2O[C@H](CN)[C@@H](O)[C@H](O)[C@H]2O)[C@H](O)[C@H]1O[C@H]1O[C@H](CO)[C@@H](O)[C@H](N)[C@H]1O | active: 0.0379 |
| Cc1ccc(S(=O)(=O)Nc2ccc3c(c2)C(=O)N([C@@H](C)CO)C[C@H](C)[C@H](CN(C)Cc2ccc(Cl)c(Cl)c2)O3)cc1 | inactive: 0.983 |
| C[C@@H]1CN([C@@H](C)CO)C(=O)c2cccc(NS(=O)(=O)c3ccc(F)cc3)c2O[C@@H]1CN(C)S(C)(=O)=O | inactive: 0.953 |
| CC(=O)N[C@H](Cc1ccc2ccccc2c1)C(=O)N[C@H](Cc1ccc(Cl)cc1)C(=O)N[C@H](Cc1cccnc1)C(=O)N[C@@H](CO)C(=O)N(C)[C@@H](Cc1ccc(O)cc1)C(=O)N[C@H](CC(N)=O)C(=O)N[C@@H](CC(C)C)C(=O)N[C@@H](CCCCNC(C)C)C(=O)N1CCC[C@H]1C(=O)N[C@H](C)C(N)=O | inactive: 1 |
| C[C@H](CO)N1C[C@H](C)[C@@H](CN(C)C(=O)CCC(F)(F)F)OCCCC[C@H](C)Oc2ccc(NC(=O)C3CCCCC3)cc2C1=O | inactive: 0.982 |
| C[C@@H]1O[C@@H](O[C@@H]2C=C(CO)[C@H]3[C@H](O[C@@H]4O[C@H](CO)[C@@H](O)[C@H](O)[C@H]4O)OC=C[C@H]32)[C@H](O)[C@H](O)[C@H]1OC(=O)/C=C/c1ccccc1 | inactive: 0.989 |
| Cc1cc(C(=O)Nc2cccc3c2O[C@@H](CN(C)S(=O)(=O)c2c(C)noc2C)[C@@H](C)CN([C@H](C)CO)C3=O)n(C)n1 | inactive: 1.03 |
| COCC#Cc1ccc2c(c1)O[C@@H](CN(C)C(=O)C1CCOCC1)[C@H](C)CN([C@@H](C)CO)S2(=O)=O | inactive: 1.01 |
| C[C@@H]1CN([C@@H](C)CO)S(=O)(=O)c2ccc(C#CC3CC3)cc2O[C@@H]1CN(C)Cc1cccc(F)c1 | inactive: 1.02 |
| COc1ccc(CN(C)C[C@@H]2Oc3ccc(NC(=O)Nc4cccc5ccccc45)cc3C(=O)N([C@@H](C)CO)C[C@@H]2C)cc1 | inactive: 0.968 |
| Cc1ccc(S(=O)(=O)N(C)C[C@@H]2Oc3cc(Br)ccc3S(=O)(=O)N([C@@H](C)CO)C[C@@H]2C)cc1 | inactive: 1.04 |
| CNC1CC(N)C(O)C(OC2OC(CO)C3OC4(OC(C(N)CO)C(O)C(O)C4O)OC3C2O)C1O (centres undefined) | inactive: 0.949 |
| O=C1CN(S(=O)(=O)Cc2ccccc2)C[C@@H]2[C@@H](c3ccc(C#Cc4ccc(F)cc4)cc3)[C@H](CO)N12 | inactive: 1.02 |
| C[C@@H]1CN([C@H](C)CO)C(=O)CCCn2cc(nn2)CO[C@@H]1CN(C)S(=O)(=O)c1ccc(-n2cccn2)cc1 | inactive: 0.985 |
| C[C@H](CO)N1C[C@H](C)[C@H](CN(C)C(=O)Nc2ccc(C(F)(F)F)cc2)Oc2c(NC(=O)c3ccc(-c4nccs4)cc3)cccc2C1=O | inactive: 1.01 |
